Results reported in article PMC2621353, “Residues Clustered in the Light-Sensing Knot of Phytochrome B are Necessary for Conformer-Specific Binding to Signaling Partner PIF3” (PLoS Genetics, 2009).
No constants are given. Whether binding was seen depends on the method and setting. Binding seen in cells or lysates may run through a third protein. Some binding calls cover weakened binding; strength is not graded here.

By UniProt entry, the sequences of proteins in these tests, tags left out. Where a name states a change or a piece, a line headed by the entry shows the natural chain unless it says otherwise.
UniProt P14713: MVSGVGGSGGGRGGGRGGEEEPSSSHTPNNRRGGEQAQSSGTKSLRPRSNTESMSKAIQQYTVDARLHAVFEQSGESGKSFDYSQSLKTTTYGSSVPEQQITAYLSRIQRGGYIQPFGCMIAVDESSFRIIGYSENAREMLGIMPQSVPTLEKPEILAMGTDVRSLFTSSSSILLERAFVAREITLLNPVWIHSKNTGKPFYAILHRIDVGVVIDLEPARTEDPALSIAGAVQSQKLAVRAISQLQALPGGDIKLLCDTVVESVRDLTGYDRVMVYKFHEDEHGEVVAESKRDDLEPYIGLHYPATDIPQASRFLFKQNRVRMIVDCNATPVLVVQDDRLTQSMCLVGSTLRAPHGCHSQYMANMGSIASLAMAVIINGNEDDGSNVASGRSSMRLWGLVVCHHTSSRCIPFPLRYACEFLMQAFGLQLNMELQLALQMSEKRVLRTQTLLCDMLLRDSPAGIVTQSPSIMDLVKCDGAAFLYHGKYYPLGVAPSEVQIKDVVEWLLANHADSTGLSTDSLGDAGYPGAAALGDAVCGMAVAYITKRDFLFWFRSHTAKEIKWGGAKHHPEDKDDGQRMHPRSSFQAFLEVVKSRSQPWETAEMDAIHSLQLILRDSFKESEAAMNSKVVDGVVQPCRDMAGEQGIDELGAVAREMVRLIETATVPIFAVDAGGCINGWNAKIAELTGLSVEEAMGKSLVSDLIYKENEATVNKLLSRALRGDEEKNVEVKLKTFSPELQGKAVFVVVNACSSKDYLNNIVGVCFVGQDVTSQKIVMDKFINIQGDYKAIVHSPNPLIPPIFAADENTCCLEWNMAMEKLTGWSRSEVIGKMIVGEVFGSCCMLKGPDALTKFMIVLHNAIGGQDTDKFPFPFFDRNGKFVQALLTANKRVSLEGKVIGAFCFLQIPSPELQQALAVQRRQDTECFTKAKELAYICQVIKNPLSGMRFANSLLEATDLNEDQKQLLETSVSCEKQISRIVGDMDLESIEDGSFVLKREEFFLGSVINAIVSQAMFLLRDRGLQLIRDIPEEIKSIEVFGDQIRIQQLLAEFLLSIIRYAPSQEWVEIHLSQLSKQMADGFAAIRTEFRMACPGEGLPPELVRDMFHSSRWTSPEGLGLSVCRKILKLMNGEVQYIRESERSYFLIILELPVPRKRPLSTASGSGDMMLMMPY

What was measured:
[1] = target: T1, GAD-PIF3, in vitro translated (Arabidopsis) (UniProt O80536); assay: co-IP; in vitro co-immunoprecipitation; both proteins in vitro translated with 35S-met; GAD-PIF3 (or another PIF) as bait, phyB Pfr as prey
T1 sequence (chain, 35S-methionine labelled): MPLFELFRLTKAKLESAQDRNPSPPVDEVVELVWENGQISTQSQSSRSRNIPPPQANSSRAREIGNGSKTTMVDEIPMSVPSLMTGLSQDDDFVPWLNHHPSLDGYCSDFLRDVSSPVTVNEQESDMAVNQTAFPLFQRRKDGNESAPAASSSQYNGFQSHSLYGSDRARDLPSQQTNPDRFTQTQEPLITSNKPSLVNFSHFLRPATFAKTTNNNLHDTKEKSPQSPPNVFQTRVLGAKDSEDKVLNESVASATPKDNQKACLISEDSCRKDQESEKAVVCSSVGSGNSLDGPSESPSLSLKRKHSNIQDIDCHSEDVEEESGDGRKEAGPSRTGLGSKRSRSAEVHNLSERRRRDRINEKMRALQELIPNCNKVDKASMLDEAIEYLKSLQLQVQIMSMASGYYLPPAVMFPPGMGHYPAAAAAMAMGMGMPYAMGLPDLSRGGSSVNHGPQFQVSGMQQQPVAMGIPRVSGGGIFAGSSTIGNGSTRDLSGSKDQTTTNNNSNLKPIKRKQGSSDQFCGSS

[2] = target: T2, PIF1, in vitro translated (Arabidopsis) (UniProt Q8GZM7); assay: as above
T2 sequence: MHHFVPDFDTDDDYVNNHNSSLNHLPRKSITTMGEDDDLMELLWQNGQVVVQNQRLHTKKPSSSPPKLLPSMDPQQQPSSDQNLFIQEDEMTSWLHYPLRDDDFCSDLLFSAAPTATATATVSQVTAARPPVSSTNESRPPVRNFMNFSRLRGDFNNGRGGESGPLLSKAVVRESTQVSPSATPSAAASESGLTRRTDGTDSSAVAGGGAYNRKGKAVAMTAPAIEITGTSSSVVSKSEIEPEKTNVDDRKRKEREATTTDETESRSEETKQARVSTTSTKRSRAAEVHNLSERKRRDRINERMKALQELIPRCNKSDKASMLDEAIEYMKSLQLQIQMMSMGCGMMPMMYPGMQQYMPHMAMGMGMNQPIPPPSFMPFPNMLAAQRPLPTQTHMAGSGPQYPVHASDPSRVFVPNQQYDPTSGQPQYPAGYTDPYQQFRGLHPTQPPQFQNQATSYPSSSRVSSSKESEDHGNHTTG

[3] = target: T3, PIF4, in vitro translated (Arabidopsis) (UniProt Q8W2F3); assay: as above
T3 sequence: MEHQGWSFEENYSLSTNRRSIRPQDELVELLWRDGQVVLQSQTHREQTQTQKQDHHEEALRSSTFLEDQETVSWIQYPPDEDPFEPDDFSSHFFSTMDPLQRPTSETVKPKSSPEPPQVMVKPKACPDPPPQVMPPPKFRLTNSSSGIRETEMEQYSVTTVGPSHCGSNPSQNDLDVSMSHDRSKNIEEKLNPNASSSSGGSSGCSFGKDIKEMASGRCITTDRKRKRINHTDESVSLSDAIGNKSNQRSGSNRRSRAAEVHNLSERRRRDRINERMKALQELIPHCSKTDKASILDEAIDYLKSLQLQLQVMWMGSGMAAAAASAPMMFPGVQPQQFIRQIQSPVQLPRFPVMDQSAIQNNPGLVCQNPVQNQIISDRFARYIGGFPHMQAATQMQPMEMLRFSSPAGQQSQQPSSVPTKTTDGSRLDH

[4] = target: T4, PIF5, in vitro translated (Arabidopsis) (UniProt Q84LH8); assay: as above
T4 sequence: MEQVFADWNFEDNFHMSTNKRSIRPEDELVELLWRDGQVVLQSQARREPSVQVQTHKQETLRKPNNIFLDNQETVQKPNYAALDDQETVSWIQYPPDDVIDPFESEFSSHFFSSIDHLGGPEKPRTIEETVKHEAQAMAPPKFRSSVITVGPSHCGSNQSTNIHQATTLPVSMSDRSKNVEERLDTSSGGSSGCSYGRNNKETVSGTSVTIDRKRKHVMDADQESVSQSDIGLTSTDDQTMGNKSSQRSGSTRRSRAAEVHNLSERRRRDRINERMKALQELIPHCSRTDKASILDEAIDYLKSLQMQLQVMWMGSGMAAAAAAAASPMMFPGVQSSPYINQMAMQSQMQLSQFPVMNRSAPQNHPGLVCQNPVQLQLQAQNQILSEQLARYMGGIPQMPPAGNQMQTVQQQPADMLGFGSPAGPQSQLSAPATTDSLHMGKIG

[5] = target: T5, PIF7, in vitro translated (Arabidopsis) (UniProt Q570R7); assay: as above
T5 sequence: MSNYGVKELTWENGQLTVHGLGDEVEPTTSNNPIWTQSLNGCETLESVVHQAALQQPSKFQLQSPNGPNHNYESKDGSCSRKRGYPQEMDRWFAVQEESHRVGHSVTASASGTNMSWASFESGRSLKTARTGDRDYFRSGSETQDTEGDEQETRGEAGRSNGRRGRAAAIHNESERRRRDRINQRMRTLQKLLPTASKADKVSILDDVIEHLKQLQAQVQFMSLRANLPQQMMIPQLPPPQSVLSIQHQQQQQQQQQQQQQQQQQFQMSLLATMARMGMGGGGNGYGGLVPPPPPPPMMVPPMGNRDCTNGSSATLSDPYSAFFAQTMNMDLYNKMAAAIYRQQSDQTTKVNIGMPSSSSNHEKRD

[6] = target: T1, GAD-PIF3, in vitro translated (Arabidopsis); assay: co-IP; in vitro co-immunoprecipitation; both proteins in vitro translated with 35S-met; GAD-PIF3 as bait, phyB Pr as prey

binding [1]	binding [2]	binding [3]	binding [4]	binding [5]	binding [6]	Substance
binds	–	–	–	–	–	full-length phyB G112D (from UniProt P14713 1-1172)
binds weakly	–	–	–	–	–	full-length phyB S367P (from UniProt P14713 1-1172)
binds weakly	–	–	–	–	–	full-length phyB S134G (from UniProt P14713 1-1172)
binds weakly	–	–	–	–	–	full-length phyB P411L (from UniProt P14713 1-1172)
binds weakly	–	–	–	–	–	full-length phyB L256C (from UniProt P14713 1-1172)
–	no binding	no binding	no binding	no binding	–	full-length phyB R352K (from UniProt P14713 1-1172)
binds	binds	binds	binds	binds	no binding (condition: Pr form)	full-length phytochrome B (phyB), wild type, in vitro translated (from UniProt P14713 1-1172)
binds weakly	–	–	–	–	–	full-length phyB C345R (from UniProt P14713 1-1172)
no binding	no binding	no binding	no binding	no binding	–	full-length phyB G111D (from UniProt P14713 1-1172)
